{
  "source": "PubChem BioAssay AID602233",
  "about": "(National Center for Advancing Translational Sciences (NCATS), 2012)",
  "note": "Out of some 380,000 compounds screened, about 170 (0.045%) were called active. This list was built around the results that the source calls inconclusive (neither active nor inactive); the mix of calls is not that of the screen. Calls come from the whole dose curve; as a rule, active = well fitted inhibition curve with a large enough effect; inconclusive = small, poorly fitted or top-dose-only effect; inactive = no such curve, though single readings can be large or run the other way. No potency is given beside an inconclusive call; the fits are too rough. % is set by controls: 0 for no effect and ±100 for the full control effect; potency is the fitted concentration of half-maximal effect; tags give direction and shape of the fitted curve.",
  "data": [
    {"molecular_target": "Phosphoglycerate kinase, glycosomal (Trypanosoma brucei brucei) (UniProt P07378)", "assay": "qHTS Assay to Find Inhibitors of Phosphoglycerate Kinase; note: nearly all actives have a fitted effect of over 60% in size", "details": "PGK/GAPDH coupled, Kinase-Glo luminescence, 60 min; series mostly up to 57.5 µM; activity change, negative = inhibition: at the top concentration", "from_the_text": "Several species of the Trypanosomatidae family of parasitic protozoans cause a spectrum of diseases throughout the tropical and subtropical world. Sleeping sickness, caused by two subspecies of Trypanosoma brucei, is endemic to areas of sub-Saharan Africa, while Chagas disease, a manifestation of Trypanosoma cruzi infection, is prevalent throughout Central and South America. In addition, many species of Leishmania are responsible for a range of cutaneous and visceral diseases, causing ulcers, destructive lesions and kalaazar, a lethal infection of the viscera. Collectively, these organisms infect 30 million people worldwide (~500 million live in endemic areas), and account for ~130,000 deaths annually. Given their debilitating and prevalent nature, trypanosomatid parasites impose a heavy medical, economic and social burden on entire populations, primarily in the developing world. The problem is further exacerbated by the fact that existing treatments have progressed little in the past 50 years, and current drugs show high toxicity and poor efficacy. […] Blood-stream stages of T. brucei are entirely dependent on glycolysis as a source of ATP, and the tricarboxylic acid cycle and oxidative phosphorylation are both repressed. Glycolysis in axenically cultured T. cruzi, representing the intracellular pathogenic stage, is also essential for these parasites. […] Previous studies have shown that the glycolytic enzyme, phosphoglycerate kinase (PGK), is a viable target for drugs to kill these parasites. […] NIH Molecular Libraries Probe Production Network [MLPCN] NIH Chemical Genomics Center [NCGC] MLPCN Grant: R03 MH093212 PI Name: Malcolm Walkinshaw, University of Edinburgh\n3ul of substrate/PGK buffer (columns 1,2,5-48) are dispensed into Greiner white solid bottom 1536-well assay plates; columns 3-4 receive only TEA buffer as 0x PGK controls. Compounds are then transferred via Kalypsys pin tool equipped with 1536-pin array (10nl slotted pins, V&P Scientific, San Diego, CA). Following addition of compound, 1ul of GAPDH (100nM final concentration, all columns) is added to initiate the reaction (this upstream coupling enzyme is necessary for in-well production of PGK substrate, 1,3-bisphosphoglycerate (1,3-BPG), which is unstable and not commercially available). The plates are then incubated at room temperature for 60 minutes. Kinase-Glo Plus reagent is added (2ul) and plates incubated for 10 minutes, before being transferred to a ViewLux high-throughput CCD imager (PerkinElmer) wherein single end-point measurements of luminescence are acquired using a clear filter. All reagents are diluted in an assay buffer consisting of 100mM TEA (pH 7.6), 5mM MgCl2 and 0.01% Tween-20.", "values": [
      {"smiles": "Cc1[nH][nH]c(=O)c1C(c1ccc(-c2ccccc2C(=O)O)o1)c1c(C)[nH][nH]c1=O", "Potency": "inconclusive [inhibitor, single point]"},
      {"smiles": "C(=Cc1cnc2ccccc2n1)c1ccc2c(c1)OCO2", "Potency": "inconclusive [inhibitor, partial curve, poor fit]"},
      {"smiles": "Cn1c(-c2ccco2)nc2cc3ccccc3cc21", "Potency": "inconclusive [inhibitor, partial curve, poor fit]"},
      {"smiles": "CC(=O)NS(=O)(=O)c1ccc(NC(=O)c2cc(-c3ccc(C)c(C)c3)nc3ccccc23)cc1", "Potency": "inconclusive [inhibitor, single point]"},
      {"smiles": "Cc1ccc(S(=O)(=O)C(CNC(=O)COc2ccccc2)c2cccs2)cc1", "note": "(centres undefined)", "Potency": "active: 10 µM"},
      {"smiles": "Cc1ccc(CSCCC(=O)N2CCN(c3ccc(F)cc3)CC2)cc1", "Potency": "inconclusive [inhibitor, partial curve, poor fit]"},
      {"smiles": "CC(C)NC(=O)c1ccc2c3n(nc2c1)-c1ccccc1CO3", "Potency": "inconclusive [inhibitor, partial curve, poor fit]"},
      {"smiles": "O=C1/C(=C\\c2cccc([N+](=O)[O-])c2O)SC(=S)N1Cc1ccccc1", "Potency": "inconclusive [inhibitor, single point]"},
      {"smiles": "O=c1c(OC2OC(CO)C(O)C(O)C2O)c(-c2ccc(O)c(O)c2)oc2cc(O)cc(O)c12", "note": "(centres undefined)", "Potency": "inconclusive [inhibitor, partial curve]"},
      {"smiles": "Cc1cn2c(=O)cc(COc3cccc(NC(=O)c4ccc(C(C)(C)C)cc4)c3)nc2s1", "activity change, negative = inhibition": "inactive: 9.76%"},
      {"smiles": "Cc1ccc(/C=N/N2C(=S)SC(C)(C)C2N(O)C(=O)Nc2ccc([N+](=O)[O-])cc2)cc1", "note": "(centres undefined)", "Potency": "inconclusive [inhibitor, partial curve, poor fit]"},
      {"smiles": "Cc1ccc(-c2nc(-c3ccccn3)no2)cc1", "Potency": "inconclusive [inhibitor, partial curve, poor fit]"},
      {"smiles": "COc1ccc(CCC(=O)O)c(O)c1", "Potency": "inconclusive [inhibitor, partial curve, poor fit]"},
      {"smiles": "COC(=O)C1=C(C)N(CCCC(=O)O)C(=O)NC1c1ccc(Cl)cc1", "note": "(centres undefined)", "activity change, negative = inhibition": "inactive: -4.63%"},
      {"smiles": "O=c1c2cc([N+](=O)[O-])cc([N+](=O)[O-])c2[nH]n1-c1ccccc1", "Potency": "inconclusive [inhibitor, partial curve, poor fit]"},
      {"smiles": "O=C1C(C=Nc2ccccc2)=C(O)c2ccccc21", "Potency": "inconclusive [inhibitor, partial curve, poor fit]"},
      {"smiles": "Cc1ccc(Cl)cc1NC(=S)N(CCCN1CCN(C)CC1)Cc1cccs1", "Potency": "inconclusive [inhibitor, partial curve, poor fit]"},
      {"smiles": "CN(CCOc1ccccc1)C(=O)c1cc(-c2ccco2)nc2ccccc12", "Potency": "inconclusive [inhibitor, partial curve, poor fit]"},
      {"smiles": "CCN(CC)S(=O)(=O)c1cccc(-c2nnc(SCCOc3ccccc3)o2)c1", "activity change, negative = inhibition": "inactive: -6.01%"},
      {"smiles": "COc1cc(/C=C2\\SC(=S)N(N3CCOCC3)C2=O)ccc1O", "Potency": "inconclusive [inhibitor, partial curve, poor fit]"},
      {"smiles": "COc1cccc2c1OC[C@@H](CO)[C@H]2N(C)C(=O)Nc1ccccc1", "activity change, negative = inhibition": "inactive: 21.5%"},
      {"smiles": "CC(C)=CCCC(C)CN1CCC(N2CCC(C(=O)NC(C)C)CC2)CC1", "note": "(centres undefined)", "activity change, negative = inhibition": "inactive: -7.33%"},
      {"smiles": "CCn1c(SCC(=O)c2ccc(O)c(O)c2)nnc1-c1ccccc1OC", "Potency": "inconclusive [inhibitor, partial curve, poor fit]"},
      {"smiles": "NS(=O)(=O)c1ccc(NNC(=O)c2ccc(Br)o2)c([N+](=O)[O-])c1", "Potency": "inconclusive [inhibitor, single point]"},
      {"smiles": "Cc1ccc(S(=O)(=O)NCc2ccncc2)cc1C", "activity change, negative = inhibition": "inactive: -0.849%"},
      {"smiles": "COc1ccc(S(=O)(=O)NCc2ccco2)cc1-c1nnc2c3ccccc3c(C)nn12", "Potency": "inconclusive [inhibitor, single point]"},
      {"smiles": "CCCNC(=O)COC(=O)c1cc(C)nc2ccccc12", "activity change, negative = inhibition": "inactive: 2.3%"},
      {"smiles": "COc1ccccc1-c1nc(-c2ccccn2)no1", "Potency": "inconclusive [inhibitor, partial curve, poor fit]"},
      {"smiles": "Cn1c(=O)c2ccccc2n2c(=S)[nH]nc12", "Potency": "inconclusive [inhibitor, partial curve, poor fit]"},
      {"smiles": "CSc1nnc(SCc2nc3sc(C(=O)O)c(C)c3c(=O)[nH]2)s1", "Potency": "inconclusive [inhibitor, single point]"},
      {"smiles": "CCOc1ccc(-c2csc(/C(C#N)=C\\c3ccc(O)c([N+](=O)[O-])c3)n2)cc1", "Potency": "inconclusive [inhibitor, single point]"},
      {"smiles": "O=C(Nc1ccc2nc(-c3ccco3)c(-c3ccco3)nc2c1)NC1CC1", "Potency": "inconclusive [inhibitor, single point]"},
      {"smiles": "CC(/C=C1\\SC(=S)N(CCCC(=O)Nc2ccc(C(=O)O)cc2)C1=O)=C\\c1ccccc1", "Potency": "inconclusive [inhibitor, partial curve, poor fit]"},
      {"smiles": "CC1(C)N=C(N)N=C(N)N1c1ccc(OCC(=O)Nc2ccccc2)c(Cl)c1", "activity change, negative = inhibition": "inactive: -8.54%"},
      {"smiles": "N#Cc1ccc2c(c1)nnn2-c1ccccc1", "activity change, negative = inhibition": "inactive: 1.93%"},
      {"smiles": "Cn1c(=O)oc2cc(S(=O)(=O)Nc3ccccc3)ccc21", "outcome": "inactive"},
      {"smiles": "COc1cc(/C=C/C=C2/CC/C(=C/C=C/c3ccc(O)c(OC)c3)C2=O)ccc1O", "Potency": "inconclusive [inhibitor, single point]"},
      {"smiles": "O=c1c(-c2c(O)cc(O)c3c(=O)cc(-c4ccc(O)cc4)oc23)c(-c2ccc(O)cc2)oc2cc(O)cc(O)c12", "Potency": "inconclusive [inhibitor, partial curve, poor fit]"},
      {"smiles": "COc1cc(/C=N/NC(=O)c2cc(O)cc(O)c2)ccc1OC(=O)c1ccccc1", "Potency": "active: 12.6 µM"},
      {"smiles": "CSc1ccc(C=NNc2ccc(S(=O)(=O)Nc3ccccc3C(=O)O)cc2[N+](=O)[O-])cc1", "Potency": "inconclusive [inhibitor, full curve, poor fit]"},
      {"smiles": "COc1ccc(OC)c(NC(=O)COC(=O)c2cc3c(s2)CCC3)c1", "Potency": "inconclusive [inhibitor, partial curve, poor fit]"},
      {"smiles": "CC(=O)N(c1ccccc1)C1SC(=O)N(c2ccccc2)C1=O", "note": "(centres undefined)", "outcome": "inactive"},
      {"smiles": "CC1C=CC(C)C(C(=O)O)C1C(=O)O", "note": "(centres undefined)", "Potency": "inconclusive [inhibitor, partial curve, poor fit]"},
      {"smiles": "COc1ccc(NC(=O)c2c[nH]n3c(=O)cc(C4CCN(C(=O)OC(C)(C)C)CC4)nc23)cc1Cl", "Potency": "inconclusive [inhibitor, partial curve, poor fit]"},
      {"smiles": "C=CCn1c(COc2ccccc2F)nnc1SCC(=O)NC(=O)NCc1ccco1", "Potency": "inconclusive [inhibitor, partial curve, poor fit]"},
      {"smiles": "COc1ccc(-n2cnc3cc([N+](=O)[O-])ccc32)cc1", "activity change, negative = inhibition": "inactive: 5.28%"},
      {"smiles": "COc1ccc(C(=O)C2CCCN(Cc3cn(C)nc3-c3ccccc3)C2)cc1F", "note": "(centres undefined)", "activity change, negative = inhibition": "inactive: -0.347%"},
      {"smiles": "Cc1cc(O)c2c(c1O)C(=O)[C@]13C(=C2O)C(=O)[C@@H]2[C@@H](O)[C@H]1[C@@H]1[C@H](O)[C@H]3C(=O)C3=C(O)c4c(O)cc(C)c(O)c4C(=O)[C@]312", "Potency": "inconclusive [inhibitor, partial curve, poor fit]"},
      {"smiles": "Cc1ccc(S(=O)c2ccc(NC(=O)C3CC3)cc2C#N)cc1", "note": "(centres undefined)", "activity change, negative = inhibition": "inactive: -7.42%"},
      {"smiles": "O=C(N/N=C/c1ccccn1)c1sc2ccccc2c1Cl", "Potency": "inconclusive [inhibitor, partial curve, poor fit]"},
      {"smiles": "COc1cc(NC(=O)c2cnc(N)s2)cc(C(=O)Nc2cccc(C(F)(F)F)c2)c1", "Potency": "inconclusive [inhibitor, single point]"},
      {"smiles": "O=C(O)C1C2C=CC3(O2)C1C(=O)N1c2ccccc2C2OCCC2C13", "note": "(centres undefined)", "Potency": "inconclusive [inhibitor, partial curve]"},
      {"smiles": "NS(=O)(=O)c1ccc(CCNC(=O)c2ccc3nccnc3c2)cc1", "Potency": "inconclusive [inhibitor, single point]"},
      {"smiles": "CC1=NN(c2ccccc2)C(=O)/C1=C/C=C/C=C/N(C)C", "Potency": "inconclusive [inhibitor, partial curve]"},
      {"smiles": "COC(=O)c1ccccc1NC(=O)CCS(=O)(=O)c1ccc(Br)cc1", "Potency": "inconclusive [inhibitor, partial curve, poor fit]"},
      {"smiles": "Cc1ccc(S(=O)(=O)NCc2ccc3c(c2)cc(C)n3C)cc1", "activity change, negative = inhibition": "inactive: -11%"},
      {"smiles": "O=C(/C=C/c1ccc(Br)o1)OCc1nc2ccsc2c(=O)[nH]1", "Potency": "inconclusive [inhibitor, partial curve, poor fit]"},
      {"smiles": "Cc1ccc(O)c(N=Nc2ccccc2)n1", "Potency": "active: 15.8 µM"},
      {"smiles": "Oc1csc(Cc2nc(-c3ccccc3F)cs2)n1", "outcome": "inactive"},
      {"smiles": "O=C(/C=C/Nc1ccc(Br)cc1F)c1ccccc1", "Potency": "inconclusive [inhibitor, partial curve, poor fit]"},
      {"smiles": "CC1CC(C)CN(C(=O)c2cccc(S(=O)(=O)Nc3cc(C(F)(F)F)ccc3Cl)c2)C1", "note": "(centres undefined)", "Potency": "inconclusive [inhibitor, single point]"},
      {"smiles": "COc1ccccc1/C=c1\\sc2nc(-c3ccco3)nn2c1=O", "Potency": "inconclusive [inhibitor, partial curve]"},
      {"smiles": "Cc1ccnc(NC(=O)c2ccoc2C)c1", "Potency": "inconclusive [inhibitor, partial curve]"},
      {"smiles": "O=C1C=CC(=O)c2c(O)c(N3CCN(CCO)CC3)c(Cl)c(O)c21", "Potency": "inconclusive [inhibitor, partial curve, poor fit]"}
    ]}
  ]
}
